The campaign covered roughly 410,000 compounds. About 7,200 (1.8%) were called active. Inconclusive means that the source gave no clear call. Such entries were picked first, then a sample of the others. Calls come from the whole dose curve; as a rule, active = well fitted activation curve with a large enough effect; inconclusive = small, poorly fitted or top-dose-only effect, or another doubt; inactive = no such curve, though single readings can be large or run the other way. Potencies of inconclusive entries are left out as doubtful fits.
Assay: qHTS of TDP-43 Inhibitors; note: nearly all actives have a fitted effect of over 50% in size; for growth rescue (activation): % of control where 0% means no effect
Details: TDP-43 expressing yeast growth rescue, BacTiter-Glo, 24 h; growth rescue (activation): at 46.1 µM (top of the series) unless noted
How it was run: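 Cell-based yeast growth screen: TDP-43 expression induced in galactose, inoculum OD600=0.02 after raffinose pregrowth to mid-log. Read-out BacTiter-Glo luminescence at 24 hr, 30 deg C; inhibition of toxicity seen as signal increase.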
In the case of `O=C1CSC2(C(=O)N(Cc3ccccc3F)c3ccccc32)N1c1ccc(F)cc1` (centres undefined), the Potency is reported as inconclusive [activator, single point].
In the case of `c1ccc2c(c1)OCCOCCOCCOCCOCCOc1ccccc1OCCOCCOCCO2`, the “growth rescue (activation)” value is reported as inactive: -11.6%.
For `CC(C)Sc1nc2c(c(=O)n1C)SC(C)C2` (centres undefined), the Potency was inconclusive [activator, single point].
For `Cc1cc2nn(-c3ccc(Cl)cc3)nc2cc1N`, the Potency was inconclusive [activator, full curve].
With `CCOc1ccc(S(=O)(=O)N2CN(c3cccc(C(C)=O)c3)c3nc4ccccc4nc32)cc1` the “growth rescue (activation)” value was inactive: 19.1%.
In the case of `CCOC(=O)Nc1ccc(NCc2ccc(F)cc2)nc1N`, the Potency is reported as inconclusive [activator, partial curve, poor fit].
In the case of `Cc1ccc(C2CC(=O)c3cnn(-c4nc(C)cc(C)n4)c3C2)cc1` (centres undefined), the Potency is reported as inconclusive [activator, partial curve].
With `Cc1cccc(CCNC(=O)c2sc3nc4n(c(=O)c3c2C)CCCC4)c1` the Potency was inconclusive [activator, single point].
In the case of `O=S1(=O)CCC(N=Cc2ccc(-c3ccc(Cl)cc3)o2)C1` (centres undefined), the Potency is reported as inconclusive [activator, single point].
With `COc1cc(-c2ccc(N3C(c4ccsc4)=Cc4ccc(F)cc4C3c3c[nH]c4ccc(C#N)cc34)cc2)cc(OC)c1OC` (centres undefined) the Potency was inconclusive [activator, full curve].
For `CC1CCCCN1C(=O)CSCC(=O)Nc1nc(-c2cccs2)cs1` (centres undefined), the Potency was inconclusive [activator, single point].
For `CCOc1ccc(S(=O)(=O)NCCC(=O)N2CCC(Cc3ccccc3)CC2)cc1`, the Potency was inconclusive [activator, single point].
In the case of `CCOC(=O)CNC1CC(=O)N(c2ccc(Br)cc2)C1=O` (centres undefined), the Potency is reported as inconclusive [activator, single point].
With `CCCOc1ccc(OCCSc2ncccn2)cc1` the Potency was inconclusive [activator, partial curve].
In the case of `CCCc1nc2ccccc2c(=O)n1NC(=O)c1c(O)c2ccccc2n(C)c1=O`, the Potency is reported as inconclusive [activator, single point].
For `S=C(NCCc1ccccc1)N/N=C/c1cccs1`, the Potency was inconclusive [activator, single point].
For `CC1=C(C(=O)N(C(C)C)C(C)C)CC(CC(=O)NC2CCCC2)C(=O)N1Cc1ccc(C(C)(C)C)cc1` (centres undefined), the Potency was inconclusive [activator, partial curve].
For `CCC(NC(=O)OC(C)(C)C)C(=O)Oc1ccc2c3c(c(=O)oc2c1)CCC3` (centres undefined), the Potency was inconclusive [activator, partial curve].
For `CC(C)Cc1ccc(C(C)C(=O)OCC(=O)c2c[nH]c3ccccc23)cc1` (centres undefined), the Potency was inconclusive [activator, single point].
For `COc1ccc2cc(C(=O)OC(C)C)sc(=O)c2c1OC`, the Potency was inconclusive [activator, single point].
In the case of `CCOC(=O)Cc1nnc2c(Nc3ccc(Cl)cc3)nc3nonc3n12`, the Potency is reported as inconclusive [activator, partial curve].
With `O=C(Cc1ccc(F)cc1)Nc1nnc2n1CCS2` the “growth rescue (activation)” value was inactive: 16.9%.
For `COc1cccc(C(=O)Nc2cc(C)nn2-c2ccccc2)c1OC`, the Potency was inconclusive [activator, single point].
For `COc1ccc(NC(=O)c2ccc(-n3c(C)ccc3C)cc2)c(OC)c1`, the Potency was inconclusive [activator, single point].
For `COc1cc(C(=O)n2nc(C)c(Sc3ccc(Cl)cc3)c2C)cc(OC)c1OC`, the Potency was inconclusive [activator, partial curve].
For `Cc1ccc(S(=O)(=O)N2CCN(C(=O)C(O)c3ccccc3)CC2)cc1` (centres undefined), the Potency was inconclusive [activator, full curve, poor fit].
In the case of `CSc1cccc(Nc2cc(C(=O)NCCCN(C)c3ccccc3)c3ccccc3n2)c1`, the “growth rescue (activation)” value is reported as inactive: 4.74%.
With `CCn1c(=O)c(=O)[nH]c2cc(C(=O)Nc3ccc(S(=O)(=O)N4CCCC4)cc3)ccc21` the “growth rescue (activation)” value was inactive: -1.41%.
For `O=C(CSc1ccccn1)N/N=C/c1cc([N+](=O)[O-])ccc1O`, the Potency was inconclusive [activator, single point].
In the case of `Cc1cccc(CCNC(=O)c2cccc(N3CCCC3=O)c2)c1`, the Potency is reported as inconclusive [activator, partial curve].
For `CSc1ccccc1NC(=O)COc1ccc(Cl)cc1`, the Potency was inconclusive [activator, partial curve].
For `Cc1oc(-c2ccccc2Cl)nc1CSc1nc2ncccc2[nH]1`, the “growth rescue (activation)” value was inactive: 24.2%.
With `COc1ccc(-c2csc3ncnc(N4CCN(S(=O)(=O)c5cccs5)CC4)c23)cc1` the Potency was active: 12.6 µM.
For `COc1ccc(-c2cc(C(F)(F)F)nc(S(=O)(=O)CCCC(=O)Nc3cccnc3Cl)n2)cc1OC`, the “growth rescue (activation)” value was inactive: -13.2%.
For `CN(C1CCCCC1)S(=O)(=O)c1ccc(SCC(=O)C(C)(C)C)nc1`, the Potency was active: 20 µM.
For `c1ccc(-c2n[nH]nc2-c2ccccc2)cc1`, the Potency was inconclusive [activator, single point].
With `O=C1C=C(c2ccccc2)OC2(CCCC2)O1` the Potency was inconclusive [activator, single point].
With `Cc1ccc(NC2=C(Cl)C(=O)OC2OC(C)C)cc1` (centres undefined) the Potency was inconclusive [activator, partial curve].
With `O=C1[C@@H]2CSC(c3ccc(Cl)cc3)N2C(=O)N1c1ccccc1` (some centres undefined) the Potency was active: 35.5 µM.
In the case of `CC(C)c1ccc(N2C(=O)CSC23C(=O)N(C)c2ccccc23)cc1` (centres undefined), the “growth rescue (activation)” value is reported as inactive: 25.5%.
With `COc1ccc2c(c1)c(N1CCCC1=O)c(C(=O)Nc1ccccc1C(F)(F)F)n2C` the “growth rescue (activation)” value was inactive: -6.33%.
With `COc1ccc(C2=C(C)C(=O)N(Cc3ccc(C(=O)NCc4cccc(C)c4)cc3)S2(=O)=O)cc1` the “growth rescue (activation)” value was inactive: 8.25%.
With `COc1ccc(-c2noc(N3CCC(C(=O)N4CCN(c5cccc(C)c5C)CC4)CC3)n2)cc1` the “growth rescue (activation)” value was inactive: 0%.
With `COCCn1c(=S)[nH]c2ncccc2c1=O` the “growth rescue (activation)” value was inactive: 0%.
For `CC(OC(=O)c1ccccc1Nc1ccc(SC(F)F)cc1)C(N)=O` (centres undefined), the Potency was inconclusive [activator, single point].
In the case of `CNc1ncc(C(=O)c2ccc(Cl)c(Cl)c2)s1`, the Potency is reported as inconclusive [activator, full curve].
With `COc1ccccc1-c1cc(C(=O)N2CCN(c3ccccc3OC)CC2)no1` the Potency was active: 17.8 µM.
With `O=C1CSC(=S)N1c1ccc(Cl)c(Cl)c1` the Potency was inconclusive [activator, single point].
With `CC1CCN(C(=O)c2cc(-c3ccc(Br)cc3)on2)CC1` the Potency was inconclusive [activator, full curve, poor fit].
With `CCc1nnc2c(N3CCN(c4cc(Cl)ccc4C)CC3)nc3ccccc3n12` the “growth rescue (activation)” value was inactive: 2.5%.
In the case of `COc1ccc(OC)c2c1sc(=NC(=O)C(C)C)n2C`, the Potency is reported as inconclusive [activator, partial curve].
In the case of `CCCCCCN1C(=O)C(O)=C(C(C)=O)C1c1ccc(Cl)cc1` (centres undefined), the Potency is reported as inconclusive [activator, partial curve].
With `CCOC(=O)c1c(-c2cccs2)csc1NC(=O)CN1CC(C)OC(C)C1` (centres undefined) the Potency was inconclusive [activator, single point].
In the case of `COc1ccc(OC)c(C2CC(=O)c3c([nH]c(C(=O)OC(C)C)c3C)C2)c1` (centres undefined), the Potency is reported as inconclusive [activator, partial curve].
With `COc1ccc(CNC(=O)c2cc(C3CC3)nc3c2cnn3C(C)C)cc1` the Potency was inconclusive [activator, single point].
For `O=C(CCC(=O)N1CC2CCCN2c2ccccc21)NCc1ccc(Cl)cc1` (centres undefined), the Potency was inconclusive [activator, partial curve].
In the case of `CC(=O)c1ccc(OCc2cc(C(=O)N3CC4C[C@@H]5CC3C[C@H](C4)C5)no2)cc1`, the Potency is reported as inconclusive [activator, partial curve].
In the case of `Cc1nc(NC(=O)CCc2ccccc2)sc1C`, the Potency is reported as active: 12.6 µM.
With `O=C(Nc1ccccc1N1CCCCC1)c1ccc(Cl)cc1` the Potency was inconclusive [activator, single point].
For `O=S(=O)(Nc1ccon1)c1ccc(Br)s1`, the Potency was inconclusive [activator, partial curve].
For `CCOC(=O)C1Nc2c(F)cc(C)cc2C2c3ccccc3CC12` (centres undefined), the Potency was inconclusive [activator, partial curve].
With `Cc1nc2nc(CNC(=O)OC(C)(C)C)nn2c(C)c1CCC(=O)NCc1ccc(F)cc1` the Potency was inconclusive [activator, partial curve, poor fit].
With `CC1(c2nnc(-c3ccccc3)o2)CC(c2ccc(Cl)cc2)=NO1` (centres undefined) the Potency was inconclusive [activator, single point].
In the case of `O=CN/C=C/c1cc(O)ccc1O`, the “growth rescue (activation)” value is reported as inactive: 17.5%.
In the case of `S=c1[nH]nc(-c2cccs2)n1C1CCCCC1`, the “growth rescue (activation)” value is reported as inactive: 0%.
For `O=c1[nH]cnc2c1ncn2[C@H]1CC[C@@H](CO)O1`, the Potency was inconclusive [activator, full curve].
With `CC(C)N(C(=O)CSc1ccc(S(=O)(=O)N2CCCCC2)cn1)c1ccccc1` the Potency was inconclusive [activator, partial curve].
With `CCC(C)(C)n1nnnc1CN1CCN(c2nc3ccc(C)cc3cc2C#N)CC1` the Potency was inconclusive [activator, partial curve].
In the case of `O=[N+]([O-])c1cccc(C2(O)COc3ccccc3O2)c1` (centres undefined), the Potency is reported as inconclusive [activator, partial curve].
Potency is the fitted concentration of half-maximal effect; tags give direction and shape of the fitted curve.
